# The campaign covered roughly 310,000 compounds. About 14,000 (4.5%) showed an effect of 50% or more. Effects have a minus sign here. The list shows a part of the results.
# Molecular target: human ether-à-go-go-related gene (hERG) potassium channel (human, UniProt Q12809)
# Assay: primary screen, population patch clamp on CHO cells stably expressing hERG
# 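Note: peak tail current of the secondary pulse compared with the same well before compound.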
# human ether-à-go-go-related gene (hERG) potassium channel, sequence (Q12809 whole entry, looked up): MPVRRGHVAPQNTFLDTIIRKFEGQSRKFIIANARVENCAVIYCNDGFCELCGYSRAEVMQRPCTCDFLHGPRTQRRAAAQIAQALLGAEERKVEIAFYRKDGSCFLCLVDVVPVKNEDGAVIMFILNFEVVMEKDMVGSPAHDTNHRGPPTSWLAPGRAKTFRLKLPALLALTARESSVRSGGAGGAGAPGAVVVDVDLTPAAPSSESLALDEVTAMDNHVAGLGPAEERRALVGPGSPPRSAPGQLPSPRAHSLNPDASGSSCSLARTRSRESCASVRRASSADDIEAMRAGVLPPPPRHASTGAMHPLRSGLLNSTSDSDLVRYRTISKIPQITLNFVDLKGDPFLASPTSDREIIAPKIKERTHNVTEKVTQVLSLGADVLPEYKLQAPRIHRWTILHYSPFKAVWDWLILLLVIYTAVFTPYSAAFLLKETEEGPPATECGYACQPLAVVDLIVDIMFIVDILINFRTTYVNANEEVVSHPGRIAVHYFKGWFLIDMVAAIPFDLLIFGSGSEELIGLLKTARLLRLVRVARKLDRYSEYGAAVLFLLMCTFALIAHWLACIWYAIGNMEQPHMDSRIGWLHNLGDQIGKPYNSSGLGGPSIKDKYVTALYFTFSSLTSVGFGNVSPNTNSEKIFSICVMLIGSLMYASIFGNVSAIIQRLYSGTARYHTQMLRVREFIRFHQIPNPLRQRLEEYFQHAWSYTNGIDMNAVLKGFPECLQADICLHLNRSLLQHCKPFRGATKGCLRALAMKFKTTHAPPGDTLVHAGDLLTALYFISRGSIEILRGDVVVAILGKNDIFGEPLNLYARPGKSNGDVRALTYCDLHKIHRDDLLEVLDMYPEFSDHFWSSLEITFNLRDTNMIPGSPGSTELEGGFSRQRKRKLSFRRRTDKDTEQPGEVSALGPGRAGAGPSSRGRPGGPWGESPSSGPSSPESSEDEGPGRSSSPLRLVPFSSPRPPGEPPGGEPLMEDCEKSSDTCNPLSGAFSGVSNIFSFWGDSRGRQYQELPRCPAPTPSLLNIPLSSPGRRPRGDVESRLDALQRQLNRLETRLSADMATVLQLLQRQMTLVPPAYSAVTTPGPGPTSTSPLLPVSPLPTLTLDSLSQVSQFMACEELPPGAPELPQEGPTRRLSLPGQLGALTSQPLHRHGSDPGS
row,SMILES,"hERG current change (%, negative = inhibition) at 10uM [%]"
1,COc1ccccc1-c1nnc(SCC(=O)O)n1C,10
2,Cc1nn(CC(=O)N2CCC(N3CCCCC3)CC2)c(=O)c2c1sc1ccccc12,-16.7
3,CCSc1nc2ccccc2n1C(=O)c1ccc(S(=O)(=O)N2CCCCC2)cc1,-24.7
4,O=C(CSc1nnnn1-c1cccc(O)c1)NC1CC1,29.8
5,CCS(=O)(=O)c1ccc(O)c(NC(=O)Nc2ccccc2OC)c1,8.74
6,CC1(C)S[C@@H]2[C@H](NC(=O)Cc3ccccc3)C(=O)N2[C@H]1C(=O)O,7.55
7,S=c1[nH]nc(-c2ccc3ccccc3n2)n1Cc1ccccc1,8.36
8,CN(CC1CCCN(CCc2ccccc2F)C1)C(=O)c1ccoc1 (stereo not shown),-66.7
9,Cc1cc(C)cc(-n2c(C)cc(C(=O)CSc3nnnn3C)c2C)c1,-2.36
10,COc1ccc(N(C(=O)c2ccco2)C(C(=O)NC2CCCC2)c2cccs2)cc1 (stereo not shown),-27.3
11,CCOc1ccc(OCCC(=O)Nc2ccc3c(c2)OCO3)cc1,10.2
12,COc1ccc(C2N(C(=O)c3ccccc3)CCN2C(=O)c2ccc(C)cc2)cc1 (stereo not shown),-24.9
13,O=C(CCNC(=O)c1ccc([N+](=O)[O-])cc1)Nc1cc(Cl)ccc1N1CCOCC1,-69.9
14,O=C(Cn1cc2c(n1)CCCC2)NC1CCCCCC1,2.68
15,CN(CC(O)COCc1cccs1)C1CCCCC1 (stereo not shown),-12.1
16,N/C(=N\OC(=O)c1ccc(Cl)c([N+](=O)[O-])c1)c1ccccn1,7.22
17,O=C(Cn1nc(-c2ccccc2)ccc1=O)N1CCOCC1,-6.25
18,N/C(=N\OC(=O)/C=C/c1ccc(Br)cc1)c1ccccn1,-6.37
19,COC(=O)c1cc(S(=O)(=O)N2CCCC2)c(Cl)cc1Cl,-9.9
20,COC(=O)CNc1nc(Cl)nc(Nc2ccc(Cl)cc2)n1,10.7
21,COc1ccc(OC)c(-n2c(=S)[nH]c3cc(C(=O)N(C)Cc4ccccc4)ccc3c2=O)c1,2.8
22,O=C(NCCc1ccccc1)C1CCC(=O)N1CCc1ccccc1 (stereo not shown),8.78

row,SMILES,"hERG current change (%, negative = inhibition) at 10uM [%]"
1,Cc1occc1C(=O)N/N=C/c1cccc2ccccc12,6.66
2,O=C(CCC(=O)N1CCSc2ccccc21)NCc1ccccc1,-0.536
3,COCCNC(=O)CN1CCN(S(=O)(=O)c2ccc3c(c2)CCCC3)CC1,-7.28
4,CCN=C1SC(C(=O)Nc2cccc(C(=O)O)c2)CC(=O)N1CC (stereo not shown),9.61
5,Cc1cc(NC(=O)CSCc2ccccc2)no1,13.4
6,COc1cc(OC)cc(C(=O)N2CCC(C(=O)c3ccc(F)cc3)CC2)c1,-30.8
7,CCOC(=O)C(=O)NNc1ccc(Cl)cc1,25.7
8,CN(C)S(=O)(=O)c1ccc(C(=O)Nc2ccc3c(c2)CCC3)cc1,-52
9,CC(C)(C)c1csc(NC(=O)CSC2=NCCS2)n1,-6.03
10,CCOC(=O)/C(C#N)=C/Nc1ccsc1C(C)=O,4.06
11,Cc1ccc(COC(=O)CCN=C2NS(=O)(=O)c3ccccc32)cc1,-15.7
12,CC(=O)Nc1ccc(NC(=O)CSc2cn(CC(=O)N3CCOCC3)c3ccccc23)cc1,23.3
13,COc1ccc(CN(C)CC(=O)Nc2cc(OC)c([N+](=O)[O-])cc2C)c(OC)c1,-48.6
14,COc1ccc2cc([C@H](C)C(=O)N(C)Cc3ccccc3N3CCCC3)ccc2c1,16.5
15,COc1ccc(NC(=O)c2sc3nc(N4CCOCC4)c4c(c3c2N)CCCC4)c(OC)c1,14
16,O=C(Nc1cccc(F)c1)c1c(O)c2ccccc2[nH]c1=O,21.3
17,CC1CCc2c(sc(NC(=O)COC(=O)c3ccc(O)cc3)c2C#N)C1 (stereo not shown),15.3
18,COc1cc(C)c(Cl)cc1S(=O)(=O)n1cnc2ccccc21,-8.11
19,CC(C)OCCCNc1nc2c(-c3ccccc3)nnn2c2ccccc12,20.2
20,O=c1[nH]c(CN2CCN(Cc3ccc4c(c3)OCO4)CC2)nc2ccccc12,-58.9
21,COc1ccc(CCNC(=O)/C(C#N)=C2\N=C(NC(=O)c3cccs3)c3ccccc32)cc1,-18.5
